The values below are quoted from earlier work in PubChem BioAssay AID1259410 (Chemical Carcinogenesis Research Information System (CCRIS), 2018).

This data set has as its system rodent tumor promotion studies, tumor incidence. Kind of data set: CCRIS tumor promotion studies. Conditions: Route [Carcinogen]: DERMAL, Route [Promoter]: DERMAL, Species: MOUSE. From the text:
The CCRIS database contains chemical records with carcinogenicity, mutagenicity, tumor promotion, and tumor inhibition test results. It was developed by the National Cancer Institute (NCI). Data are derived from studies cited in primary journals, current awareness tools, NCI reports, and other sources. Test results have been reviewed by experts in carcinogenesis and mutagenesis.
CCRIS provides historical information from the years 1985 - 2011. It is no longer updated.
This is an archive assay for CCRIS tumor promotion studies.

Each structure is given as a SMILES string. Further values from the same series stand in other lists.

For `CCCCCCCCCCCCCC(=O)O[C@@H]1[C@@H](C)[C@@]2(O)[C@@H](C=C(CO)C[C@]3(O)C(=O)C(C)=C[C@@H]23)[C@@H]2C(C)(C)[C@]12OC(C)=O`, the outcome reads like this: (Carcinogen: ANTI-1,2,3,4-TETRAHYDRO-5,6-DIMETHYLCHRYSENE-1,2-DIOL-3,4-EPOXIDE, 139347-89-0, Carcinogen: ANTI-1,2,3,4-TETRAHYDRO-5,6-DIMETHYLCHRYSENE-1,2-DIOL-3,4-EPOXIDE, 139347-89-0, Doses [Carcinogen]: 0, 33, 100, 400 NMOL IN 0.1 ML ACETONE ONCE, Doses [Carcinogen]: 0, 33, 100, 400 NMOL IN 0.1 ML ACETONE ONCE, Doses [Promoter]: 2.5 UG IN 0.1 ML ACETONE 3/WK FOR 20 WK BEGINNING 10D POST CARCINOGEN DOSE (STUDY DURATION: 21.5 WK), Strain/Sex: CD-1/FEMALE) “skin:tumor”; (Carcinogen: ANTI-1,2,3,4-TETRAHYDRO-5-METHYLCHRYSENE-1,2-DIOL-3,4-EPOXIDE, 111901-39-4, Carcinogen: ANTI-1,2,3,4-TETRAHYDRO-5-METHYLCHRYSENE-1,2-DIOL-3,4-EPOXIDE, 111901-39-4, Doses [Carcinogen]: 0, 33, 100, 400 NMOL IN 0.1 ML ACETONE ONCE, Doses [Carcinogen]: 0, 33, 100, 400 NMOL IN 0.1 ML ACETONE ONCE, Doses [Promoter]: 2.5 UG IN 0.1 ML ACETONE 3/WK FOR 20 WK BEGINNING 10 D POST CARCINOGEN DOSE (STUDY DURATION: 21.5 WK), Strain/Sex: CD-1/FEMALE) “skin: tumor”; (Carcinogen: DELTAMETHRIN, 52918-63-5, Carcinogen: DELTAMETHRIN, 52918-63-5, Doses [Carcinogen]: 4 MG/KG IN 200 µL ACETONE 3/WK FOR 3 WK, Doses [Promoter]: 0, 5 UG IN 100 µL ACETONE 3/WK FOR 32 WK BEGINNING 1 WK POST CARCINOGEN TREATMENT (STUDY DURATION: 36 WK), Doses [Promoter]: 0, 5 UG IN 100 µL ACETONE 3/WK FOR 32 WK BEGINNING 1 WK POST CARCINOGEN TREATMENT (STUDY DURATION: 36 WK), Strain/Sex: SWISS/FEMALE) “skin: tumor”; (Carcinogen: DELTAMETHRIN, 52918-63-5, Carcinogen: DELTAMETHRIN, 52918-63-5, Doses [Carcinogen]: 4 MG/KG IN 200 µL ACETONE 3/WK FOR 3 WK, Doses [Promoter]: 0, 5 UG IN 100 µL ACETONE 3/WK FOR 32 WK BEGINNING 1 WK POST CARCINOGEN TREATMENT (STUDY DURATION: 36 WK), Doses [Promoter]: 0, 5 UG IN 100 µL ACETONE 3/WK FOR 32 WK BEGINNING 1 WK POST CARCINOGEN TREATMENT (STUDY DURATION: 36 WK), Strain/Sex: SWISS/MALE) “skin: tumor”; (Carcinogen: DELTAMETHRIN, 52918-63-5, Carcinogen: DELTAMETHRIN, 52918-63-5, Doses [Carcinogen]: 4 MG/KG IN 200 µL ACETONE ONCE, Doses [Promoter]: 0, 5 UG IN 100 µL ACETONE 3/WK FOR 32 WK BEGINNING 1 WK POST CARCINOGEN TREATMENT (STUDY DURATION: 33 WK), Doses [Promoter]: 0, 5 UG IN 100 µL ACETONE 3/WK FOR 32 WK BEGINNING 1 WK POST CARCINOGEN TREATMENT (STUDY DURATION: 33 WK), Strain/Sex: SWISS/FEMALE) “skin: tumor”; (Carcinogen: DELTAMETHRIN, 52918-63-5, Carcinogen: DELTAMETHRIN, 52918-63-5, Doses [Carcinogen]: 4 MG/KG IN 200 µL ACETONE ONCE, Doses [Promoter]: 0, 5 UG IN 100 µL ACETONE 3/WK FOR 32 WK BEGINNING 1 WK POST CARCINOGEN TREATMENT (STUDY DURATION: 33 WK), Doses [Promoter]: 0, 5 UG IN 100 µL ACETONE 3/WK FOR 32 WK BEGINNING 1 WK POST CARCINOGEN TREATMENT (STUDY DURATION: 33 WK), Strain/Sex: SWISS/MALE) “skin: tumor”. For the same compound, the outcome is “skin: tumor” (Carcinogen: DIBENZO[A,L]PYRENE, 191-30-0, Carcinogen: DIBENZO[A,L]PYRENE, 191-30-0, Doses [Carcinogen]: 40 NMOLE IN 100 µL ACETONE ONCE, Doses [Promoter]: 10 NMOL IN 100 µL ACETONE 2/WK FOR 30 WK BEGINNING 1 WK POST CARCINOGEN DOSE (STUDY DURATION: 31 WK), Strain/Sex: NMRI/FEMALE); “skin: papilloma and carcinoma” (Carcinogen: DIBENZO[C,G]CARBAZOLE, 194-59-2, Carcinogen: DIBENZO[C,G]CARBAZOLE, 194-59-2, Doses [Carcinogen]: 200 NMOL IN 50 µL ACETONE ONCE, Doses [Promoter]: 0, 2 UG IN 50 µL ACETONE 2/WK FOR 28 WK BEGINNING IMMEDIATELY AFTER CARCINOGEN TREATMENT (STUDY DURATION: 28 WK), Doses [Promoter]: 0, 2 UG IN 50 µL ACETONE 2/WK FOR 28 WK BEGINNING IMMEDIATELY AFTER CARCINOGEN TREATMENT (STUDY DURATION: 28 WK), Strain/Sex: ICR/FEMALE); “skin: papilloma” (Carcinogen: DIBENZ[C,H]ACRIDINE, 224-53-3, Carcinogen: DIBENZ[C,H]ACRIDINE, 224-53-3, Doses [Carcinogen]: 0, 50, 200 NMOL IN 0.2 ML ACETONE ONCE (STUDY DURATION: 150 D), Doses [Carcinogen]: 0, 50, 200 NMOL IN 0.2 ML ACETONE ONCE (STUDY DURATION: 150 D), Doses [Promoter]: 0, 16 NMOL IN 0.2 ML ACETONE 2/WK FOR 20 WK BEGINNING 10 D POST CARCINOGEN DOSE (STUDY DURATION: 150 D), Doses [Promoter]: 0, 16 NMOL IN 0.2 ML ACETONE 2/WK FOR 20 WK BEGINNING 10 D POST CARCINOGEN DOSE (STUDY DURATION: 150 D), Strain/Sex: CD-1/FEMALE).
